From the RNAGym collection of RNA variant scans (doi:10.1093/nar/gkz1192)
Read counts are not given, so values of variants with three or more changes are uncertain.

B1: CPEB3 Ribozyme (parent)
chain: UAACAGGGGGCCACAGCAGAAGCGUUCACGUCGCAGCCCCUGUCAGAUUCUGGUGAAUCUGCGAAUUCUGCUGUAUAUCUC

Variants of: B1
Assay: self-cleavage, relative activity (ratio to wild type); higher = more cleavage; in vitro, sequencing
How it was run: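 For each CPEB3 ribozyme variant, relative activity is its cleaved/total read fraction divided by the unmutated ribozyme's. Barcoded error-prone PCR libraries were transcribed by T7 RNA polymerase (5 hours, 37°C) and held in DNase I for 15 min before an EDTA stop, with cleavage occurring throughout. Template-switching reverse transcription and Illumina sequencing were used to read the RNAs. A 5-read minimum applied, and results are the mean of three batches.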

Variant	self-cleavage
A28G A47U U58C U67C U74C U80A	0.12
A28G A47U U67C U74C U80A	0.1
A28G A47U U72A	0.13
A28G A56G C59U	0.42
A28G A56G U60G	0.24
A28G A56U A64G U69A U72A	0.09
A28G A57G U60C A64U U74C	0.13
A28G A57G U66A	0.11
A28G A57G U76C	0.36
A28G A57U A65G	0.06
A28G A64G G73C	0.47
A28G A64G U74C	0.83
A28G A64U G70A U74A	0.09
A28G A64U U78C	0.21
A28G A65G U67A	0.45
A28G A65G U67C	0.18
A28G A65G U78C	0.19
A28G A75G U80A	0.47
A28G A77G U78C	0.38
A28G C29U G33C A45U G46A U51C U76C	0.13
A28G C29U U74A	0.3

Variant	self-cleavage
A28G C32A A35G U51G A64G	0.39
A28G C32A G63A	0.12
A28G C32U A57U U69C	0.07
A28G C32U U41G U54C U72C	0.09
A28G C34U A64U U66C	0.13
A28G C34U U58C U69A	0.09
A28G C34U U74A A77G	0.19
A28G C37A U43C U51A A65C U76C C79U	0.04
A28G C37U U43A U51A U69A A77G	0.09
A28G C37U U60C U69C A77G	0.16
A28G C38A U41C U51A	0.1
A28G C38G A45G U51A U69C	0.06
A28G C38U U60A C71U	0.08
A28G C39A U43C U72A	0.04
A28G C39A U66C U67C G70A	0.55
A28G C39G U69C	0.35
A28G C39U U48C A64G	0.1
A28G C40A U58A U78C C79G	0.3
A28G C40G U49G U51G	0.06
A28G C40U A45G C62G	0.22
A28G C40U A45U	0.38

Variant	self-cleavage
A28G C40U U41G A75G U78C	0.08
A28G C59U A64G U76C	0.28
A28G G30A U43A	0.54
A28G G30A U43C A56U	0.07
A28G G30A U72C	0.13
A28G G30U A56G A64G U72A	0.06
A28G G30U U48C	0.12
A28G G33A A35G U43A	0.13
A28G G33A A45U U60C	0.18
A28G G33A U67C U72C	0.06
A28G G33C A57G	0.14
A28G G33U U54A	0.21
A28G G53A A65G	0.2
A28G G53C U67C C68A G70U G73A	0.21
A28G G53U A56U	0.29
A28G G55A U60C	0.16
A28G G70U A75G U80G	0.07
A28G U31A A47G C62U	0.19
A28G U31A A47G U69A U74C	0.09
A28G U31A A64U	0.49
A28G U31A U43G	0.39

Variant	self-cleavage
A28G U31A U54A A64U	0.43
A28G U31A U78C	0.13
A28G U31C A64U A65U U78C C79U	0.05
A28G U31C C32G U43C U60C U78C U80A	0.14
A28G U31C G36A	0.11
A28G U31C U48C	0.16
A28G U31C U49C A64G U69A	0.05
A28G U31C U66C	0.14
A28G U31G A35G U69A	0.24
A28G U31G A45G A47U U49C G70A A77U	0.1
A28G U31G C40G U78C	0.19
A28G U31G U69C	0.07
A28G U41A A56G U80C	0.1
A28G U41A A64G U78C C81U	0.09
A28G U41A C62U	0.47
A28G U41A U67A	0.1
A28G U41A U69C	0.23
A28G U41C C62U	0.12
A28G U41C U43A U60A	0.19
A28G U41C U51A A64G U66C A75G	0.18
A28G U41C U69A	0.17
